Experimental findings from patent US20230365641A1 (XILIO DEVELOPMENT, published 2023) are described below.

Assay [1] addresses PD-1 (antigen of the ELISA and of the in vitro affinity measurement) (UniProt Q15116 part only, limits assumed). The experiment in a line: ELISA on PD-1.
The target of assay [2] is T1, PD-1 shown on cells (Raji-PD-1 cells); CD3/CD28 activated human CD8+ T cells; PD-1 effector cells of the … (human, UniProt Q15116 25-288). Description: cell-based or functional assay.
The target in assay [3] is T1, PD-1 shown on cells (Raji-PD-1 cells; …). The experiment in a line: flow cytometry, on-cell binding to PD-1 expressing Raji cells, anti-human IgG-PE.
The target is the same in assay [4]. The description is as above. This is another data set of the same source.

B1: TC29 (Fc fusion)
heavy 1: QVQLVQSGVEVKKPGASVKVSCKASGYTFTNYYMYWVRQAPGQGLEWMGGINPSNGGTNFNEKFKNRVTLTTDSSTTTAYMELKSLQFDDTAVYYCARRDYRFDMGFDYWGQGTTVTVSSASTKGPSVFPLAPSSKSTSGGTAALGCLVKDYFPEPVTVSWNSGALTSGVHTFPAVLQSSGLYSLSSVVTVPSSSLGTQTYICNVNHKPSNTKVDKKVEPKSCDKTHTCPPCPAPELLGGPSVFLFPPKPKDTLMISRTPEVTCVVVDVSHEDPEVKFNWYVDGVEVHNAKTKPREEQYASTYRVVSVLTVLHQDWLNGKEYKCKVSNKALPAPIEKTISKAKGQPREPQVYTLPPCRDELTKNQVSLWCLVKGFYPSDIAVEWESNGQPENNYKTTPPVLDSDGSFFLYSKLTVDKSRWQQGNVFSCSVMHEALHNRFTQKSLSLSPGGGSSPPGGGSSGGGSGPAPTSSSTKKTQLQLEHLLLDLQMILNGINNYKNPKLTAMLTAKFAMPKKATELKHLQCLEEALKPLEEVLNLAQSKNFHLRPRDLISNINVIVLELKGSETTFMCEYADETATIVEFLNRWITFAQSIISTLT
heavy 2: QVQLVQSGVEVKKPGASVKVSCKASGYTFTNYYMYWVRQAPGQGLEWMGGINPSNGGTNFNEKFKNRVTLTTDSSTTTAYMELKSLQFDDTAVYYCARRDYRFDMGFDYWGQGTTVTVSSASTKGPSVFPLAPSSKSTSGGTAALGCLVKDYFPEPVTVSWNSGALTSGVHTFPAVLQSSGLYSLSSVVTVPSSSLGTQTYICNVNHKPSNTKVDKKV[not shown - human IgG1 Fc with changes]
light: EIVLTQSPATLSLSPGERATLSCRASKGVSTSGYSYLHWYQQKPGQAPRLLIYLASYLESGVPARFSGSGSGTDFTLTISSLEPEDFAVYYCQHSRDLPLTFGGGTKVEIKRTVAAPSVFIFPPSDEQLKSGTASVVCLLNNFYPREAKVQWKVDNALQSGNSQESVTEQDSKDSTYSLSSTLTLSKADYEKHKVYACEVTHQGLSSPVTKSFNRGEC
notes: also called Parental, no mask; PD-1 targeted (Pembro Fab2), unmasked TC29
In assay [1], B1 yielded a dissociation constant (Kd) of 0.16 nM. In addition, the “EC50, PD-1 Blockade RGA Assay” value in assay [2] was determined as 0.779 nM. In addition, in assay [3], the “EC50 (read off the curve)” value is about 0.7 nM. Also, in assay [4], the half-maximal effective concentration (EC50) was 0.7 nM.
